Assay results published in article PMC4336329 (PLoS ONE, 2015).
The campaign covered roughly 310,000 compounds. About 2,200 (0.71%) showed an effect of 50% or more. The effect is printed as a negative number. This is one part of the list.

Molecular target: human ether-à-go-go-related gene (hERG) potassium channel (human, UniProt Q12809)
Experiment: primary screen, population patch clamp on CHO cells stably expressing hERG

Chain of human ether-à-go-go-related gene (hERG) potassium channel (Q12809 whole entry, looked up): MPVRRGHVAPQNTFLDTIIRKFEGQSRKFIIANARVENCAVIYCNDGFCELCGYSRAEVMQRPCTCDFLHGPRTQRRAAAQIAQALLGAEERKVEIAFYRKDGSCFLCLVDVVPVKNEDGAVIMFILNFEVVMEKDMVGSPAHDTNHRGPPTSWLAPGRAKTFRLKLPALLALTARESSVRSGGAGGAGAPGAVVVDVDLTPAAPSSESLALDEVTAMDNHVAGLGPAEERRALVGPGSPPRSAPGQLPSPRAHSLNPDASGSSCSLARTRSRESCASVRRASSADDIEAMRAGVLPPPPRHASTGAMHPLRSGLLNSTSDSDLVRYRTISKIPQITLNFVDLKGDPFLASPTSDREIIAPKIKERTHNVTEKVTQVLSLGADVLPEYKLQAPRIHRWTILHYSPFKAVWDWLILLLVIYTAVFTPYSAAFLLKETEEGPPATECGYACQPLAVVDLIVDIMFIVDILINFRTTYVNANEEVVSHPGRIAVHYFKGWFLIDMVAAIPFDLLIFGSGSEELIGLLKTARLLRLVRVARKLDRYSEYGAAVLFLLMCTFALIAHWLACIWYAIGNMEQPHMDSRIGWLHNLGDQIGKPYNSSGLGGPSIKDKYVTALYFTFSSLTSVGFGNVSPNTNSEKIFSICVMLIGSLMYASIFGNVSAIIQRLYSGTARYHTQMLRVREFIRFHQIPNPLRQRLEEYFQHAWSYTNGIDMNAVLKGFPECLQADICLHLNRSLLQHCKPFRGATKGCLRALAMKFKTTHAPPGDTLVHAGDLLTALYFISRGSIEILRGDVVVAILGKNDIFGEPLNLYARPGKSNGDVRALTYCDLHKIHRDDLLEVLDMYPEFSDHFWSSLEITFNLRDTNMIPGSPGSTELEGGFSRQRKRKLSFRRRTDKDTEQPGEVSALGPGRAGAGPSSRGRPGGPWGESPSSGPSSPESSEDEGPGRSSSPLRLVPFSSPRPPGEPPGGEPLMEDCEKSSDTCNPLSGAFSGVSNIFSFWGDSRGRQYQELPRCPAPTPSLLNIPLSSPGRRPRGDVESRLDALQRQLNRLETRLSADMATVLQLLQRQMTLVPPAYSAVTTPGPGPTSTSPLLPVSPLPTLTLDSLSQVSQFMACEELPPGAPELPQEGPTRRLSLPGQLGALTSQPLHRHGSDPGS

Structure (SMILES)	hERG current change (%, negative = inhibition) at 1uM [%]
COc1cccc(/C=N/Nc2ccccc2C(=O)O)c1O	14
COc1ccc(S(=O)(=O)N2CCC(C(=O)NCCN3CCOCC3)CC2)cc1C	14.8
COc1ccc(OC)c(NC(=O)CSc2ncccc2C(=O)O)c1	13.7
O=C(CN1C(=O)c2cccc3cccc(c23)C1=O)N1CCN(Cc2ccc3c(c2)OCO3)CC1	-12.2
Cc1cccc(NC(=O)c2ccc(N3CCCCC3)c([N+](=O)[O-])c2)n1	21.3
CCC(C)(C)c1ccc(O)cc1	7.05
CC(C)(C)c1ccc(C(=O)Nc2cnccn2)cc1	-12.8
CC(C)(C)NC(=O)Cn1c(SCC(=O)NCc2cccs2)nc2ccccc21	6.57
CN1CCN(C(=O)c2ccc3c(=O)n4c(nc3c2)CCCCC4)CC1	3.06
CC(C)(C)NC(=O)C(c1ccco1)N(C(=O)Cn1nnc(-c2ccc(F)cc2)n1)c1ccccc1 (stereo not drawn)	-6.47
CCOc1cc(C)ccc1OCc1nnc(SCC(=O)Nc2cccc(C(=O)O)c2)n1-c1ccccc1	16.4
COc1cccc(NC(=O)CN(C)C(=O)CN2C(=O)NC(C)(c3ccc(C)cc3)C2=O)c1 (stereo not drawn)	14.3
CCOC(=O)c1c(-c2ccccc2)oc2ccc(OC)cc12	9.4
CC(C)CCc1noc(CN(CC2CCC2)CC2CCCO2)n1 (stereo not drawn)	10.7
COc1ccc(OC)c(N=c2oc3cc(O)ccc3cc2C(N)=O)c1	3.95
CCOC(=O)Cc1csc(NC(=O)c2ccc3c(c2)OCO3)n1	9.9
CN1c2ccccc2N(C)C1c1c(O)ccc2ccccc12	-3.93
Cc1ccc2cc(C#N)c(SCC(=O)NCc3ccco3)nc2c1	5.21
CCOC(=O)CC(=O)CSc1nc2ccccc2c(=O)n1-c1ccc(C(=O)N2CCOCC2)cc1	10.7

Structure (SMILES)	hERG current change (%, negative = inhibition) at 1uM [%]
COc1cc(C(=S)N2CCCC2)cc(OC)c1O	12.3
c1ccc(CNCC2COc3ccccc3O2)cc1 (stereo not drawn)	16.4
O=C(CNC(=O)c1ccco1)NCC(=O)OCc1ccc(F)cc1	15.3
C=CCCCCCCCCC(=O)NNC1=CC(=O)CC(C)(C)C1	1.29
CCn1c(=O)cc(SCC(=O)NCCCN2CCC(C)CC2)c2ccccc21	6.91
O=C(CN1C(=O)/C(=C\c2ccccc2Br)Oc2ccccc21)NCCCN1CCOCC1	8.38
CCOC(=O)c1cc(S(=O)(=O)N2CCOCC2)cn1C	18.8
Cl.c1ccc2c(c1)oc1c(NCC3CCCO3)ncnc12 (stereo not drawn)	8.38
N/C(=N\OC(=O)c1ccc([N+](=O)[O-])cc1)c1cccnc1	17.5
Cc1ccc(Oc2ccccc2/C=C/C(=O)O)cc1	15
CCN1CCN(C(=O)C2CCN(c3nnc(-n4c(C)ccc4C)s3)CC2)CC1	1.5
CCC(C)NC(=O)CSC1=Nc2ccccc2C2=NC(CC(=O)NCc3ccccc3)C(=O)N12 (stereo not drawn)	6.89
COc1cc(/C=C(\C#N)c2nc3ccccc3[nH]2)ccc1OC(=O)c1ccco1	-0.888
COc1cccc(CNC(=O)CN2C(=O)COc3ccc(S(=O)(=O)N4CCOCC4)cc32)c1	7.36
C/C(=C\c1ccccc1)C1NC(=O)c2c(sc3c2CCCC3)N1 (stereo not drawn)	-13.5
CC1=NN(c2nc(-c3ccc(Cl)cc3)cs2)C(=O)C1	11.7
O=C(Nc1nnc(SCc2ccccc2)s1)c1ccco1	5.19
Cc1ccc(S(=O)(=O)/N=C(/Nc2ccc3[nH]c(=O)[nH]c3c2)c2ccccc2)cc1	9.61
O=C(CSc1nnc(-c2ccncc2)n1CC1CCCO1)Nc1cccc(O)c1 (stereo not drawn)	6.15

Structure (SMILES)	hERG current change (%, negative = inhibition) at 1uM [%]
c1ccc(N(c2ccccc2)c2nc(N3CCCC3)nc(-n3ccnc3)n2)cc1	2.46
O=C(NC1CCCC1)C1=COCCO1	6.01
CCC(COC)NC(=O)CCc1nnc(Cc2c[nH]c3ccccc23)o1 (stereo not drawn)	19.2
Cc1cc([N+](=O)[O-])cc(C)c1OCC(=O)N/N=C/c1ccc(OC(=O)c2ccccc2)cc1	7.73
COc1ccc(-c2cn3ccccc3n2)cc1	13.8
O=C(O)CCCc1nc(-c2ccccc2)no1	0.874
CC(=O)N1CCCc2cc(S(=O)(=O)N3CCCC(C(=O)Nc4cccc(C)c4)C3)ccc21 (stereo not drawn)	11
CN(C)c1ccc(NC(=O)CSc2nc3ccccc3c(=O)n2C2CCCCC2)cc1	-14.6
COc1ccccc1N(CC(=O)NCc1ccccc1)C(=O)CCC(=O)Nc1nccs1	15.6
CC(/C=N/NC(=O)c1nnn(-c2nonc2N)c1CN(C)C)=C\c1ccco1	2.8
c1ccc(CN2CCN(c3ncnc4c3[nH]c3ccccc34)CC2)cc1	-4.31
NC(=O)CSc1nc(-c2ccccc2Cl)ns1	9.72
COc1cc2c(cc1OC)C(C)N(C(=O)Cc1ccc(C(F)(F)F)cc1)CC2 (stereo not drawn)	1.85
COc1ccc(C2NN=C(c3ccc(C)cc3)S2)cc1OC (stereo not drawn)	16.1
c1cc(-c2noc(CC3CCCCC3)n2)ccn1	13.9
COc1ccc(C(=O)CN(C(=O)c2ccc(Cl)cc2)N2C(=O)C3CCCCC3C2=O)cc1 (stereo not drawn)	10.8
CSc1sc(C(=O)NC(=O)NCc2cccnc2)c(C)c1-c1ccon1	-0.601
Cc1ccccc1C(=O)NC(=S)Nc1cccc(NC(=O)C(C)C)c1	-3.79
O=C(O)c1cc(N=Nc2ccc(S(=O)(=O)Nc3ccccn3)cc2)ccc1O	7.96
